# Experimental data from the supplement of paper PMC11417369.
# ± gives the standard deviation of the averaged measurements. This is one part of the list.
# System: PfAP2-EXP AP2 domain (GST-tagged)
# Assay: gcPBM binding intensity (ln(normalized median fluorescence intensity)); higher = stronger DNA binding
# How it was run: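 The binding buffer was 1× PBS containing 1% milk, 0.2 mg/ml BSA, 0.5% salmon testes DNA and 0.03% Triton X-100. In it, GST-tagged P. falciparum DNA-binding domains expressed in E. coli were applied for 1 h to an Agilent 4 × 180k array of primer-extended double-stranded 36-bp intergenic genomic probes plus negative controls. Binding intensity, read with Alexa488 anti-GST antibody and a 488 nm scan, is the highest Masliner-normalised natural-log median intensity across replicate spots of either probe orientation.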
row,Sequence,gcPBM binding intensity (ln)
1,AAAAAAAAAAAAATACGTACATACATACCTACATAT [XGTACX_site233],8.615 ± 0.021
2,AAAAAAAAATTAATATATAAAAGGATATATATATAT [GTGCAC_negctrl_site449],9.86 ± 0.3
3,AAAATATAATATAATGCACACATAAAACAAAAAAAA [CACACA_site8989],8.78 ± 0.28
4,GAATAATATATATATTGTACTTTTTATTTATATTAT [XGTACX_site3180],8.62 ± 0.42
5,CTTTTTTTTTTTTTTACACACCCAAATCACATACAT [CACACA_site4051],8.71 ± 0.39
6,ATATATATATTTATATGTACGAAATATAAAAAAAAA [XGTACX_site5054],8.815 ± 0.007
7,CTTATCAAAAAAAAAGCATGCCACAGGCAAAAGGTA [TGCATGCA_site574],8.88 ± 0.44
8,ACATATAAATATATTACACACACACTAAAAAAATAA [CACACA_site6209],8.82 ± 0.42
9,CACCTTATAAATACTGCACACATAAAATATATATTA [CACACA_site8908],8.7 ± 0.26
10,ATATATATATATATATGTACATATATACATATACAT [XGTACX_site2350],9.99 ± 0.43
11,ATATAAAAATGTGTATGTACACACTTTATTTTTAAT [XGTACX_site5272],8.31 ± 0.34
12,TTAAAAAACCTTAGATGTACAGTTATATATAAAATA [XGTACX_site6688],8.54 ± 0.35
13,TTTTTCTATAAAAAATGTACATATTTTATGAAGGAA [XGTACX_site821],8.5 ± 0.35
14,AAATTACAAATACAAACACACAAATGTTTTTCATTC [CACACA_site3552],8.13 ± 0.38
15,ATCCTTTATTTTTTTTGTACATAAAAATAACTCGAG [XGTACX_site3885],8.97 ± 0.42
16,TGGAATAATACGCGTACACACATATATATATTAATA [CACACA_site131],8.82 ± 0.47
17,TGAACACACGAGCACACACACACATCTATATTTATA [CACACA_site6607],8.57 ± 0.38
18,AGGTATCAAAAATATGCATGCAATATTTTATGTAAT [TGCATGCA_site1055],10.1 ± 0.26
19,AAACATAAGAGACACACACACATATATAAATAAATA [CACACA_site7674],8.81 ± 0.42
20,AAAAATAAAATAAAGAAGGAAAATAAAAAAATAAGG [CACACA_negctrl_site1811],8.79 ± 0.44
21,AGGAGGTCAGTTCACAGTACCCAGGAAATCTACGGA [XGTACX_site2552],8.53 ± 0.45
22,AATTTCATAAATATAACTGAGAATAAATAAACAAAG [GTGCAC_negctrl_site146],8.71 ± 0.47

row,Sequence,gcPBM binding intensity (ln)
1,CCTGTAAATAAATATAAATACATATTTCTAATATAT [GTGCAC_negctrl_site21],8.25 ± 0.54
2,TTTCAAAAAAATAATGTGCACATTAGAAAATAAATA [GTGCAC_site9416],8.9 ± 0.3
3,ACCTCATAATATTTAACACACAAAATTAAATGTATG [CACACA_site6898],8.6 ± 0.33
4,GAAGTATTTATTTATGCATGCAAATATACAAAAAAA [TGCATGCA_site975],10 ± 0.14
5,TTTTATACATATTTTACACACTAAAATATACATATA [CACACA_site324],8.45 ± 0.28
6,ACATATATTTAAAAATGTACTTACATATATTTTTTA [XGTACX_site6050],8.22 ± 0.29
7,TAAATATTTTTAGATGCATGCAATAATTACCCAAAG [TGCATGCA_site636],9.87 ± 0.18
8,TTATTATTATTACTAGTGCATTAATTATATATGTAA,8.72 ± 0.13
9,TTTTTTTTTTCTGAAAGTACTAATTTCCTGGAGGAA [XGTACX_site759],8.23 ± 0.47
10,ATAAAATAAATATTTTGTTATTTATTTAATCTAATA [XGTACX_negctrl_site404],7.86 ± 0.49
11,TTATGTTGTAAATGCACACATACATAAACTCAGTTT [CACACA_site5639],8.78 ± 0.057
12,ATTTAGAAAAATAAAACACACATATAGATGTAAATA [CACACA_site7853],8.57 ± 0.58
13,ATATTTCTGTCAAGCACACATAATATTAAAATATGT [CACACA_site4330],8.48 ± 0.36
14,ATGTTTGTCTATAGCTGTACCTATTTATAAAACGTA [XGTACX_site7157],8.8 ± 0.33
15,TCATATTATAATGTGAGTACATATAATAAATAAGTT [XGTACX_site2470],8.51 ± 0.35
16,TTAATATGATATATATATATATATATATATATATAT [CACACA_negctrl_site683],10 ± 0.47
17,GTAAAAATTTTAAATACATGCAAGCGATTAATATGA [TGCATGCA_site80],9.15 ± 0.22
18,CGTTAAAGGGAATGTATACACACGTTTCTCTATGTT [CACACA_site1198],8.66 ± 0.47
19,GTATATATGTATATATGTACATATATACATTTTGTT [XGTACX_site7320],8.81 ± 0.13
20,TTATAACAACTGGAATGATTAACAATAAATATTAAA [CACACA_negctrl_site1723],8.41 ± 0.48
21,TATATATTTAACAATCGTACATATTTACAAATATAA [XGTACX_site2131],8.29 ± 0.33
22,TTAAATAATATTAAATGTACATATTATTATGATATA [XGTACX_site6189],8.16 ± 0.35

row,Sequence,gcPBM binding intensity (ln)
1,TATACATATATAAATGCATGTTGATATTAATAGTTA [TGCATGCA_site639],8.62 ± 0.33
2,ACAGAAAAAAAACACACACACATAATATACATACAT [CACACA_site1932],8.56 ± 0.44
3,AGGAGACTTAAAAAAAGTACAAAAAAAAAAAAAAGC [XGTACX_site1576],8.64 ± 0.4
4,TATTTTTTTTTCTTTTTATATATAATAATCTTCATT [GTGCAC_negctrl_site80],8.48 ± 0.59
5,TTATATGGCTCCATTTGTACGCATCCATGTTTTTAT [XGTACX_site6590],9.16 ± 0.45
6,AACGAAAACACTACGTGTACCAAACGTCCTACTAAC [XGTACX_site4915],8.49 ± 0.39
7,GTATATATTTTTATTTAATAATTTGTTTATTTATTC [CACACA_negctrl_site647],8.56 ± 0.22
8,CATACATATACATACAGTACATATTTTTTGTCAATT [XGTACX_site7357],8.56 ± 0.33
9,AGTTATTAAAAATGTGCATGCAATGGTTTCTCTTAA [TGCATGCA_site634],9.99 ± 0.17
10,AAAAAAACATAACAAAATGAAACAAAACAAAAAGAA [GTGCAC_negctrl_site577],8.93 ± 0.54
11,AAAAAAAAAAAAAAAGCACACATCATATTATAATTC [CACACA_site3355],8.57 ± 0.12
12,TCTTTTTTTTCTTTTTTTTTATTTAAATATCAAGTA [CACACA_negctrl_site1354],8.37 ± 0.4
13,AGGAGGTCAGTTCACAGTACCCAGAAACTCTACGAG [XGTACX_site2006],8.29 ± 0.57
14,ATTTATAATGATTTTTTTAGTAATCTTGTTATTTTT [XGTACX_negctrl_site373],8.32 ± 0.38
15,GTATGTATATATATATGTACATACTGTTTATCGTTA [XGTACX_site6168],8.55 ± 0.28
16,AATATATAGAAACACACACACAAAAAAAAAAAAAAA [CACACA_site1326],8.3 ± 0.54
17,AATAAAAAGACATTCACACATATATATTATTTATAT [CACACA_site5936],8.51 ± 0.46
18,ATATAAAAAAAAAAAAGTACACATAAACAAATGCAT [XGTACX_site4241],8.79 ± 0.52
19,AGATTATAAAATTCTACACACATATATACATATATA [CACACA_site3485],8.29 ± 0.35
20,GACCAATTCAAATATGCACACAAATTTGAAAACGAT [CACACA_site9202],8.61 ± 0.35
21,TTTTAATAAATATACACACACAAAAAAAAAAAAAAA [CACACA_site3971],8.21 ± 0.59
22,TTTCACTTTTTCCAAAGTACATATATAAAAATTAAT [XGTACX_site6947],8.51 ± 0.35

row,Sequence,gcPBM binding intensity (ln)
1,TTAAAATATAATATTCGTACTTATTCAAAAGAAAAA [XGTACX_site2122],8.12 ± 0.44
2,ATATGTAGAAGTAATGCACACATATGTATATATATA [CACACA_site8796],9.215 ± 0.035
3,TATATATATATATAATGTACATATATATAATATACA [XGTACX_site1552],10.1 ± 0.27
4,ATTTCTACTAAAAATACACACGATGATACAACGAAG [CACACA_site1755],9.05 ± 0.52
5,ATAATGTAAAAGTAAACACACACATATATATATACA [CACACA_site8793],8.88 ± 0.48
6,GTCTTAAAAATTAAAACACACGTTCACTTTCATATT [CACACA_site5803],8.82 ± 0.4
7,AATTAATAACAAAATAAACACACATATATAAATACA [CACACA_site8456],8.83 ± 0.33
8,CTAATGATCATATATACACACACACTAATAAAAAAA [CACACA_site9329],8.63 ± 0.52
9,TATATTTAGATATATACACACATTAGCATTTTCATA [CACACA_site6902],8.24 ± 0.35
10,AAAGAATTTGCATATACACACAAAAAGATATATACA [CACACA_site6318],8.64 ± 0.27
11,CATAATACAGATAACACACACAATTATACATAAAAT [CACACA_site5742],8.77 ± 0.35
12,ATAGTATCTGGTAGCTGTACGAGTCGTAGAGAGTAG [XGTACX_site2546],9.14 ± 0.37
13,TTATTATTTCTTAGTAGTACTATATAATTTTTTTTT [XGTACX_site1847],8.48 ± 0.34
14,GGAAAATTATCAATAGCATGCAAAATGTGAATATTA [TGCATGCA_site901],9.59 ± 0.59
15,ATATATCTGTATGGCACACACGGATAAATATATATA [CACACA_site4668],8.7 ± 0.3
16,TATATTTGTACATGATATTTTTTTTTTCTTTTAAAA [CACACA_negctrl_site754],8.46 ± 0.32
17,TGTATTTAGAAACATACACACATATTAAGTTTACAT [CACACA_site5689],8.29 ± 0.41
18,GCCAAAATATAATTTACACACTTATTAAATAATTAT [CACACA_site236],8.61 ± 0.14
19,AGAATAATACAAAAATGTACATTAATAAAAAGATAG [XGTACX_site780],8.99 ± 0.42
20,TTTCCTCATTTTATCATACACACTTATTTATATGTG [CACACA_site900],8.64 ± 0.42
21,ATTGAATATGGATATGTGCACATATGTATATAAGTA,9.2 ± 0.25
22,ATATATATACTGTGTACACACATATGTATTTATATA [CACACA_site4600],8.71 ± 0.057
